The values that follow come from paper PMC7975708.

Chains of the proteins cited; added tags and fusions are not shown. Lines headed by an entry give the natural chain unless they say otherwise; changes in a name come on top. A line that says so, or that is headed by a name, gives the form on record, which may keep a tag or linker. Residues count along the entry.
UniProt O95994: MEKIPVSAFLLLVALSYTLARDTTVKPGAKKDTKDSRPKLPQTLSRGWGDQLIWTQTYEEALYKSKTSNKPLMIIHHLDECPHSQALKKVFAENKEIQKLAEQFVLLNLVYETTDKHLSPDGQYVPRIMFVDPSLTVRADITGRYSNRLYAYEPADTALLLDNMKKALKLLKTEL
Anterior gradient 2 (AGR2), endogenous in Huh7 cells (human (endogenous in Huh7)): residues 21-175 of O95994
AGR2-C81A from an expression plasmid in HepG2 cells (O95994, form named): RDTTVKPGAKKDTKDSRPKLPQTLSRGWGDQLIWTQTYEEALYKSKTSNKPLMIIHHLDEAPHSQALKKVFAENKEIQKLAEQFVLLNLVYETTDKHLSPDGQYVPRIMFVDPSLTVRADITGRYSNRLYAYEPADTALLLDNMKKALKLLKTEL

Assay [1] has as its target T1, fatty acid binding protein-1 (FABP1), endogenous in Huh7 and HepG2 cells (human (endogenous in Huh7 and HepG2)) (UniProt P07148).
T1 sequence: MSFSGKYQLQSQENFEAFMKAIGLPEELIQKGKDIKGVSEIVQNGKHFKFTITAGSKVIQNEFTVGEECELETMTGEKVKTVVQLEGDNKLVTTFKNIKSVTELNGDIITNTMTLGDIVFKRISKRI
Briefly: co-IP; lysates of HepG2 cells treated with AGR2 or AGR2-C81A expression plasmids; primary antibody and agarose beads overnight at 4 °C; immunoblot. In general terms: A western blot detects proteins with antibodies after separation by electrophoresis.

The target of assay [2] is T2, His-FABP1 protein (purified recombinant FABP1) (UniProt P07148).
T2 sequence: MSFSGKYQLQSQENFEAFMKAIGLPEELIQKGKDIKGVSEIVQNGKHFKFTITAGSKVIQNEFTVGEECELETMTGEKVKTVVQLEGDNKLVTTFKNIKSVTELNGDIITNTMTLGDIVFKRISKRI
Briefly: pull-down; His pull-down: about 50 μg 6×His fusion protein held on Co-Sepharose beads, 4 °C 2 h, 20 mM Tris pH 8.0, 150 mM NaCl; washed with 10 mM imidazole, eluted with 250 mM imidazole; Coomassie staining and western blotting; both purified.

The target of assay [3] is T2, His-FABP1 protein (purified recombinant FABP1). Nature of the assay: pull-down; His pull-down as a3, in the presence of the reducing agent β-mercaptoethanol (β-ME); both purified.
Assay [4] concerns the target Anterior gradient 2 (AGR2), endogenous in Huh7 cells (human (endogenous in Huh7)) (UniProt O95994). Nature of the assay: co-IP; Huh7 cell lysates (1.2 mg protein), endogenous proteins; precleared with protein A/G Plus-Agarose and non-specific IgG, primary antibody and agarose beads overnight at 4 °C; immunoblot.

Results are given in words; binding and its absence hold for the method and conditions named. For some assays here: In cells and extracts the contact can be indirect. Some results given as binding are weak or reduced against the parent protein; the word gives no strength. For some assays here: Tags and fused reporters may be left off the sequences shown.

Consider “AGR2-C81A from an expression plasmid in HepG2 cells (from UniProt O95994 21-175)”, for which the binding result in assay [1] was “no binding”. Turning to “recombinant AGR2-C81A mutant (His pull-down) (from UniProt O95994 1-175)”, the binding entry in assay [2] is listed as “no binding”.

Turning to “AGR2 from an expression plasmid in HepG2 cells (from UniProt O95994 21-175)”, the binding result in assay [1] was “binds”.

On to “AGR2 truncation mutant containing PDI and KTEL motifs (amino acid residues 81-175) (from UniProt O95994 81-175) (domain or fragment)”, for which the binding entry in assay [2] is recorded as “binds”. “AGR2 mutant lacking the PDI motif (amino acid residues 101-175) (from UniProt O95994 101-175) (domain or fragment)”: the binding result in assay [2] is “no binding”.

With “GST-AGR2 fusion protein (recombinant full-length AGR2) (from UniProt O95994 1-175)”, the figures for the binding result in assay [3] and in assay [2] were “no binding (condition: with β-mercaptoethanol (β-ME))” and “binds”, respectively.

B1: fatty acid binding protein-1 (FABP1), endogenous in Huh7 and HepG2 cells (protein, UniProt P07148 1-127)
chain: MSFSGKYQLQSQENFEAFMKAIGLPEELIQKGKDIKGVSEIVQNGKHFKFTITAGSKVIQNEFTVGEECELETMTGEKVKTVVQLEGDNKLVTTFKNIKSVTELNGDIITNTMTLGDIVFKRISKRI
With B1, in assay [4], the binding result is on record as “binds”.
